Results: patent publication US20230250178A1 (published 2023)
Like-named read-outs stand apart in the source and are kept apart here.

How the values were obtained:
human CCR8 [1] = molecular target: T1, human CCR8 (human, UniProt P51685 1-355); test: cell-based or functional assay
cynomolgus CCR8 [2] = molecular target: T2, cynomolgus CCR8 (cynomolgus, UniProt O97665 1-356 (rhesus entry)); test: FACS, CHO-cynoCCR8
T2 construct: also called cynoCCR8; G7NYJ2_CCR8_MACFA

cynomolgus CCR8 [3] = molecular target: T2, cynomolgus CCR8; test: FACS, CHO-cynoCCR8; remark: listed apart in the source
human CCR8 [4] = molecular target: T1, human CCR8; test: FACS, CHO-hCCR8
human CCR8 [5] = molecular target: T1, human CCR8; test: FACS, HuT78 (endogenous hCCR8)
human CCR8 [6] = molecular target: T1, human CCR8; test: FACS, CHO-hCCR8; remark: listed apart in the source
human CCR8 [7] = molecular target: T1, human CCR8; test: FACS, activated human Tregs
[8] = molecular target: T3, HUMAN_TRD_Ys peptide (# 4) (human, Y(SO3) at printed positions 4, 16, 18 (Y3, Y15, Y17 of CCR8); C-terminal K(Biot)); test: SPR, peptide on SA chip
T3 construct: sulfated
T3 peptide: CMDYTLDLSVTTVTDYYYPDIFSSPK
Experimental: (§1) SPR binding assays were performed to systematically evaluate antibody binding to a) non-sulfated vs sulfated antigen, b) TRD vs N term and c) human vs cynomolgus CCR8. SPR binding assays were performed on a Biacore T200 instrument (Cytiva) at 25° C. with assay buffer 1× HBS-EP+(order no. BR100826, Cytiva). Peptides were used as ligands and were captured using their C-terminal biotin label on to a streptavidin coated sensor chip (“Sensor Chip SA”, Order No. BR100398, Cytiva). To this end, a terminal lysine (K) was added at the C-term of each peptide for biotinylation. For the N term of CCR8, the naturally occurring cysteine between TRD and LID domain was replaced by a serine. […] The concentration of analyte in assay buffer was 0.05-10 nM and the measurement was performed in multicycle kinetics mode. The sensor surface was regenerated with glycine pH 2.0 after each cycle. Obtained sensorgrams were double referenced (subtraction of reference flow cell signal and buffer injection) and were fitted to a 1:1 Langmuir binding model to derive kinetic data using the Biacore T200 Evaluation software.

[9] = molecular target: T4, Cyno_NTerm_Ys peptide (# 6) (cynomolgus, Y(SO3) at printed positions 4, 16, 18 (Y3, Y15, Y17 of CCR8); C-terminal K(Biot)); test: SPR, peptide on SA chip
T4 construct: sulfated; natural cysteine between TRD and LID replaced by serine
T4 peptide: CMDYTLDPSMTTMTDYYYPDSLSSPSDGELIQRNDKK
Experimental: as §1

[10] = molecular target: T5, Cyno_TRD_Ys peptide (# 2) (cynomolgus, Y(SO3) at printed positions 4, 16, 18 (Y3, Y15, Y17 of CCR8); C-terminal K(Biot)); test: SPR, peptide on SA chip
T5 construct: sulfated
T5 peptide: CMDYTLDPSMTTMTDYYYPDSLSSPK
Experimental: as §1

[11] = molecular target: T6, HUMAN_NTerm_Ys peptide (# 8) (human, Y(SO3) at printed positions 4, 16, 18 (Y3, Y15, Y17 of CCR8); C-terminal K(Biot)); test: SPR, peptide on SA chip
T6 construct: sulfated; natural cysteine between TRD and LID replaced by serine
T6 peptide: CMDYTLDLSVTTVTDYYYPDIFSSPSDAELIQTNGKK
Experimental: as §1

human CCR8 [12] = molecular target: T1, human CCR8; test: cell-based or functional assay; remark: listed apart in the source

T2 sequence (O97665 other isoform, or with tags, fused parts or gaps): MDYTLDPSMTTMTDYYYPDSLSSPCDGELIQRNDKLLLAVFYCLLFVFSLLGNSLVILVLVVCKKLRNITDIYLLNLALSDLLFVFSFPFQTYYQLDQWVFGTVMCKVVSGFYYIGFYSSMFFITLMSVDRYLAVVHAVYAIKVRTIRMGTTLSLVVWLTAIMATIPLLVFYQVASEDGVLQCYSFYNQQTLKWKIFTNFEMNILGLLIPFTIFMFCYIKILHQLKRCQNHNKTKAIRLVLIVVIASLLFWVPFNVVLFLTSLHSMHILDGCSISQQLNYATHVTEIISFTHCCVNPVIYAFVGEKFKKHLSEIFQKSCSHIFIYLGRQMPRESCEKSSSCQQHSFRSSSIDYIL

B1: TPP-17578 (antibody, human IgG1, lambda)
heavy: EVQLLESGGGLVQPGGSLRLSCAASGFTFSNAWMSWVRQAPGKGLEWVSGINWNGGSTGYADSVKGRFTISRDNSKNTLYLQMNSLRAEDTAVYYCVRTYSGHYGPYFDNWGQGTLVTVSS[here human IgG1 constant region without letters]
light: QSVLTQPPSASGTPGQRVTISCSGSSSNIGSHTVNWYQQLPGTAPKLLIYRNNQRPSGVPDRFSGSKSGTSASLAISGLRSEDEADYYCAAWDDSLNGWVFGGGTKLTVLGQPKAAPSVTLFPPSSEELQANKATLVCLISDFYPGAVTVAWKADSSPVKAGVETTTPSKQSNNKYAASSYLSLTPEQWKSHRSYSCQVTHEGSTVEKTVAPTECS
notes: also called 497A-M128-B10-1-hIgG1Lambda; copies: 2 + 2
Question: What does the source list for B1?
Answer: IC50, Ca flux assay (human CCR8 [1]): 4.53 nM; EC50 (cynomolgus CCR8 [2]): 2.72 nM; EC50 (cynomolgus CCR8 [3]): 1.04 nM; EC50 (human CCR8 [4]): 1.66 nM; EC50 (human CCR8 [5]): 178 nM; EC50 (human CCR8 [6]): 11.5 nM; EC50 (human CCR8 [7]): 25.1 nM

B2: TPP-19546 (antibody, human IgG1, lambda)
heavy: EVQLLESGGGLVQPGGSLRLSCAASGFTFSSAWMSWVRQAPGKGLEWVSGISWSGGSTGYADSVKGRFTISRDNSKNTLYLQMNSLRAEDTAVYYCARTYSGHYGPYFDYWGQGTLVTVSS[here human IgG1 constant region without letters]
light: QSVLTQPPSASGTPGQRVTISCSGSSSNIGSHTVNWYQQLPGTAPKLLIYRNNQRPSGVPDRFSGSKSGTSASLAISGLRSEDEADYYCAAWDDSLNGWVFGGGTKLTVLGQPKAAPSVTLFPPSSEELQANKATLVCLISDFYPGAVTVAWKADSSPVKAGVETTTPSKQSNNKYAASSYLSLTPEQWKSHRSYSCQVTHEGSTVEKTVAPTECS
notes: also called 17578-gl33-hIgG1Lambda; copies: 2 + 2
Question: What does the source list for B2?
Answer: EC50 (cynomolgus CCR8 [3]): 0.52 nM; EC50 (human CCR8 [4]): 0.78 nM; EC50 (human CCR8 [7]): 15.2 nM; Activity in % [8]: 54.8%; Kd [8]: ~0.242 nM; koff [8]: ~0.00162 s⁻¹; kon [8]: ~6.69e+06 M⁻¹ s⁻¹; Activity in % [9]: 107%; Kd [9]: ~0.0922 nM; koff [9]: ~0.00154 s⁻¹; kon [9]: ~1.67e+07 M⁻¹ s⁻¹; Activity in % [10]: 81.8%; Kd [10]: ~0.171 nM; koff [10]: ~0.000844 s⁻¹; kon [10]: ~4.92e+06 M⁻¹ s⁻¹; Activity in % [11]: 25.2%; Kd [11]: ~0.16 nM; koff [11]: ~0.00419 s⁻¹; kon [11]: ~2.61e+07 M⁻¹ s⁻¹

B3: TPP-20955 (antibody, human IgG1, lambda)
heavy: EVQLLESGGGLVQPGGSLRLSCAASGFTFSSYGMHWVRQAPGKGLEWVSAIKWGGGSHGYADSVKGRFTISRDNSKNTLYLQMNSLRAEDTAVYYCARGHHKGYDGRFFDYWGQGTLVTVSS[here human IgG1 constant region without letters]
light: QSVLTQPPSVSGAPGQRVTISCTGSSSNIGAGYNVHWYQQLPGTAPKLLIYTNNRRPSGVPDRFSGSKSGTSASLAISGLRSEDEADYYCAAWDASLSGWVFGGGTKLTVLGQPKAAPSVTLFPPSSEELQANKATLVCLISDFYPGAVTVAWKADSSPVKAGVETTTPSKQSNNKYAASSYLSLTPEQWKSHRSYSCQVTHEGSTVEKTVAPTECS
notes: also called 18206-gl-47-hIgG1wt-Lambda; copies: 2 + 2
Question: B3 was tested. Which “IC50, Ca flux assay” value (human CCR8 [12]) did it give?
Answer: 0.52 nM

Question: And the EC50 (cynomolgus CCR8 [2])?
Answer: 0.475 nM

Question: What about the EC50 (human CCR8 [5]) of the same binder?
Answer: 0.456 nM

Question: And the EC50 (human CCR8 [6])?
Answer: 0.469 nM
